Assay [1] concerns Trp535Ala RT RNase H. The experiment in a line: biochemical. Conditions: Trp535Ala mutant vs wt RNase H. Here is the method: (§1) HIV RT-associated RNase H activity was measured as described in 100 µL reaction volume containing 50 mM Tris-HCl buffer pH 7.8, 6 mM MgCl2, 1 mM dithiothreitol (DTT), 80 mM KCl, 0.25 µM hybrid RNA/DNA 5′-[…] -Fluorescin-3′ (HPLC, dry, QC: Mass Check) (available from Metabion International AG, Planegg/Steinkirchen, Germany) 5′-Dabcyl-[…] -3′ (HPLC, dry, QC: Mass Check) and 20 ng of wt RT or 700ng of Trp535Ala RT according to a linear range of dose-response curve.

Assay [2] concerns the target Trp535Ala RT RNase H (Human immunodeficiency virus type 1 group M subtype B, UniProt P03366, W1134A). As to the kind of experiment: biochemical. As to the method:
as §1

Bounds are passed on as bounds.

By IC50 is commonly meant the concentration that inhibits the measured activity by half.

As to `Cc1cc(-c2ccccc2)n2nc(C(=O)Nc3ccc(O)c(O)c3)nc2n1` [Compound 18g, N-(3,4-Dihydroxyphenyl)-5-methyl-7-phenyl-[1,2,4]triazolo[1,5-a]pyrimidine-2-carboxamide], in the assay with Trp535Ala RT RNase H [1], the “reduction of inhibitory potency, fold of difference” value is above 244 fold. For the same molecule, on Trp535Ala RT RNase H [2], the IC50 is above 100 µM.

These data come from paper PMC7179434, “1,2,4-Triazolo[1,5-a]pyrimidines as a Novel Class of Inhibitors of the HIV-1 Reverse Transcriptase-Associated Ribonuclease H Activity” (Molecules, 2020).
